Source: PubChem BioAssay (NCATS)
Inconclusive results, whose numbers are uncertain, are shown with a selection of clear calls. For part of these data: A potency beside an inconclusive call is a rough fit, not a confirmed value. Activity calls are given as the source filed them. Calls come from the whole dose curve; as a rule, active = well fitted curve in the direction sought with a large enough effect; inconclusive = small, poorly fitted or top-dose-only effect, or another doubt; inactive = no such curve, though single readings can be large; an effect the other way counts as inactive or inconclusive.

Assays:
[1] = P-glycoprotein substrates identified in KB-8-5-11 adenocarcinoma cell line, qHTS therapeutic library screen (AID 1346987); note: nearly all actives have a fitted effect of over 65% in size
How it was run: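 KB-8-5-11, a colchicine-selected P-gp-overexpressing KB-3-1 subline, was grown without colchicine for the assay. Cells were seeded at 500 cells/well, dosed in concentration-response and incubated 72 h at 37 degree C, 5% CO2. Viability was read by CellTiter-Glo luminescence.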

[2] = tested on: Zika virus NS2B-NS3 protease (unlinked complex); assay: Primary screen GU Rhodamine qHTS for Zika virus inhibitors: Unlinked NS2B-NS3 protease assay (AID 1347159); note: nearly all actives have a fitted effect of over 60% in size
How it was run: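 Noncovalent NS2B hydrophilic domain–NS3 protease domain complex (25 nM) preincubated 15 min at room temperature with compounds (up to 114 microM) in 10 mM Tris-HCl pH 8.0, 0.01% Tween 20; 1.5 microM Rhodamine110 substrate added, fluorescence change over 15 min fitted to Hill equation.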

[3] = Primary qHTS for inhibitors of nuclear receptor binding SET domain protein 2 (NSD2) in an isogenic RCH-ACV NSD2 p.E1099K mutant (9B) (AID 1645876); note: nearly all actives have a fitted effect of over 70% in size
[4] = Primary qHTS for inhibitors of nuclear receptor binding SET domain protein 2 (NSD2) in an RCH-ACV wild type WT cells (2C) (AID 1645877); settings: activity change, negative = cell killing: at 44.9 µM (top of the series); note: nearly all actives have a fitted effect of over 70% in size; for activity change, negative = cell killing: % is set by controls: 0 for no effect and ±100 for the full control effect
CRL-7250 = normal cell line; assay: Cytotoxic Profiling of Annotated Libraries Using Quantitative High-Throughput Screening (AID 1296008); settings: Five cell lines viability, CellTiter-Glo ATP luminescence, 48-72 h; max response: hits give low values; note: nearly all actives have a fitted effect of over 60% in size; for max response: % is set by controls: 0 for no effect and ±100 for the full control effect
How it was run: (§1)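 Compounds were pin-transferred onto cells and incubated 48 or 72 hr at 37 degree Celsius, 95% humidity. CellTiter-Glo was added, plates sat 10 min at room temperature, then ATP-coupled luminescence was imaged as the viability read-out.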

HEK293 = assay: as above; settings: Five cell lines viability, CellTiter-Glo ATP luminescence, 48-72 h; max response: hits give low values
How it was run: as §1

PA-1 = assay: Primary qHTS to identify gynecologic anti-cancer compounds using libraries of approved drugs and bioactive compounds (AID 1345084); settings: Gynecologic cancer cell panel viability, ATPlite luminescence, 48 h; series mostly up to 57.5 µM; note: nearly all actives have a fitted effect of over 55% in size; for activity change, negative = cytotoxicity: % is set by controls: 0 for no effect and ±100 for the full control effect
How it was run: (§2)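 Luminescence from the ATPlite ATP-monitoring reagent indicates viable cell number; lower signal means cytotoxicity. Cells received compound 16 h after seeding and were exposed for 48 h across five concentrations.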

SKOV3 = assay: as above; settings: Gynecologic cancer cell panel viability, ATPlite luminescence, 48 h; series mostly up to 57.5 µM
How it was run: as §2

[5] = Primary redox qHTS assay for identification of artifact compounds. (AID 1845223)
How it was run: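 Amplex Red (25 uM) and HRP (250 mU/mL) in HBSS, with compounds for 15 min, then 250 uM DTT for 30 min, room temperature, dark. Fluorescence 525/598 nm read; normalized to DMSO and 10 uM DA3003; Hill fit.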

[6] = Primary fluorescence-based thiol-reactive (MSTI) qHTS assay for identification of artifact compounds. (AID 1845221);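 note: thiol-reactive compounds lower the probe fluorescence signal; nearly all actives have a fitted effect of over 65% in size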
How it was run: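 Compounds were incubated 1 h at room temperature in the dark with the MSTI probe (4 uM) in PBS pH 7.4, 2% DMSO. Signals were normalized between Acetyl-MSTI and MSTI.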

OV90 = assay: Primary qHTS to identify gynecologic anti-cancer compounds using libraries of approved drugs and bioactive compounds (AID 1345084); settings: Gynecologic cancer cell panel viability, ATPlite luminescence, 48 h; series mostly up to 57.5 µM; note: nearly all actives have a fitted effect of over 55% in size; for activity change, negative = cytotoxicity: % is set by controls: 0 for no effect and ±100 for the full control effect
How it was run: as §2

Tov-21-G = assay: as above; settings: Gynecologic cancer cell panel viability, ATPlite luminescence, 48 h; activity change, negative = cytotoxicity: at 57.5 µM (top of the series)
How it was run: as §2
Potency is the fitted concentration of half-maximal effect; tags give direction and shape of the fitted curve.

Compound: C[C@@H](c1ccc2nccn2c1)n1nnc2ncc(-c3cnn(C)c3)nc21
- Potency [1]: inconclusive: 20.6 µM [inhibitor, partial curve]
- Potency [2]: inactive
- Potency [3]: inconclusive: 14.8 µM [inhibitor, partial curve]
- Potency [4]: inconclusive: 13.2 µM [inhibitor, partial curve]
- Potency (CRL-7250): inconclusive: 23.1 µM [inhibitor, single point]
- Potency (HEK293): inconclusive: 14.6 µM [inhibitor, partial curve]
- Potency (PA-1): inactive
- Potency (SKOV3): inconclusive: 11.2 µM [cytotoxic, partial curve, poor fit]

Compound: CC(O)(C#Cc1ccc2c(c1)N(c1nc(N)ncc1Cl)CC2)c1nccs1 (stereo unspecified)
- Potency [1]: inconclusive: 18.4 µM [inhibitor, single point]
- Potency [2]: inconclusive: 89.1 µM [inhibitor, single point]
- Potency [5]: inconclusive: 16.8 µM [activator, partial curve, poor fit]
- Potency (CRL-7250): inconclusive: 23.1 µM [inhibitor, single point]
- Potency (HEK293): active: 26.4 µM

Compound: C=C1C(=O)O[C@H]2C1CCC(C)=C1C(=O)C=C(C)[C@@]12O (stereo partly specified)
- Potency [1]: inconclusive: 16.4 µM [inhibitor, single point]
- Potency [2]: inconclusive: 56.2 µM [inhibitor, partial curve]
- Potency [5]: inactive
- Potency (CRL-7250): inconclusive: 18.4 µM [inhibitor, single point]
- Potency (HEK293): inconclusive: 29.1 µM [inhibitor, single point]

Compound: O=c1cc(N2CCN(c3cccc(C(F)(F)F)c3)CC2)[nH]c(=O)n1C1CCCCC1
- Potency [4]: inconclusive: 2.3 µM [inhibitor, full curve]
- Potency [5]: inactive
- Potency (CRL-7250): inconclusive: 7.31 µM [inhibitor, partial curve]
- Potency (HEK293): inconclusive: 20.6 µM [inhibitor, single point]
- Potency (PA-1): inactive

Compound: NC(=O)c1nc(Nc2ccccc2)sc1NC(=O)C1CCCCC1
- Potency [3]: inconclusive: 11.5 µM [inhibitor, partial curve]
- Potency [4]: inconclusive: 7.28 µM [inhibitor, partial curve]
- Potency [6]: active: 1.68 µM
- Potency (CRL-7250): inconclusive: 29.1 µM [inhibitor, single point]
- Potency (HEK293): inconclusive: 20.6 µM [inhibitor, single point]
- Potency (SKOV3): inconclusive: 39.8 µM [cytotoxic, single point]

Compound: O=C(O[C@H]1[C@@H]2C=CO[C@@H](O[C@@H]3O[C@H](CO)[C@@H](O)[C@H](O)[C@H]3O)[C@@H]2[C@@]2(CO)O[C@@H]12)c1ccc(O)c(O)c1
- Potency [3]: inactive
- Potency [6]: active: 3.27 µM
- outcome (CRL-7250): inactive
- outcome (HEK293): inactive
- Potency (OV90): inactive

Compound: CC(C)c1nc(N(C)S(C)(=O)=O)nc(-c2ccc(F)cc2)c1/C=C/[C@@H](O)C[C@@H](O)CC(=O)O
- Potency [3]: inconclusive: 18.3 µM [inhibitor, single point]
- Potency [4]: inconclusive: 23 µM [inhibitor, single point]
- Potency (CRL-7250): active: 16.4 µM
- outcome (HEK293): inactive

Compound: C=C(C)C1CCC(C)C12CC(O)C1(C)OC1C2OC(=O)C(N)CCC(=O)O (stereo unspecified)
- Potency (CRL-7250): inconclusive: 20.2 µM [inhibitor, single point]
- max response (HEK293): inactive: -1.87%
- Potency (SKOV3): inactive

Compound: CC1(C)CCC(C)(C)c2cc([C@@H](O)C(=O)Nc3ccc(C(=O)O)cc3F)ccc21
- Potency [2]: inconclusive: 10 µM [inhibitor, full curve]
- Potency [4]: inactive
- max response (CRL-7250): inactive: -3.37%
- outcome (HEK293): inactive
- Potency (SKOV3): inactive

Compound: CC1OC(OC2C(C)OC(OC3C(O)C(CO)OC(O[C@H]4CC[C@@]5(C)C(CC[C@]6(C)C5CC=C5C7[C@@H](C)[C@H](C)CC[C@]7(C(=O)O)CC[C@]56C(=O)O)C4(C)C)C3O)C(O)C2O)C(O)C(O)C1O (stereo partly specified)
- Potency (CRL-7250): inconclusive: 6.93 µM [inhibitor, single point]
- max response (HEK293): inactive: -6.08%
- activity change, negative = cytotoxicity (PA-1): inactive: -0.273% [at 11.6 µM]
- activity change, negative = cytotoxicity (SKOV3): inactive: -6.75% [at 11.6 µM]

Compound: COc1c2c(c(C)c3c1C(=O)OC3)O[C@@]1(C)C[C@@H](OC(C)=O)[C@]34O[C@](OC)(CC[C@]3(C)[C@H]1C2)OC4(C)C
- Potency [3]: inconclusive: 10 µM [inhibitor, partial curve]
- Potency [4]: inconclusive: 10 µM [inhibitor, partial curve]
- max response (CRL-7250): inactive: -3.21%
- Potency (HEK293): inconclusive: 14.2 µM [inhibitor, single point]
- Potency (PA-1): inactive
- Potency (Tov-21-G): inactive

Compound: CC(C)[C@@H](C(=O)O)N1Cc2c(cc(O)c3c2O[C@]2(C3)[C@H](C)CCC3C(C)(C)[C@H](O)[C@H](O)C[C@@]32C)C1=O (stereo partly specified)
- Potency [2]: inconclusive: 7.94 µM [inhibitor, full curve]
- Potency [5]: inconclusive: 4.12 µM [activator, partial curve, poor fit]
- max response (CRL-7250): inactive: 2.63%
- max response (HEK293): inactive: -15%
- Potency (SKOV3): inactive
- Potency (Tov-21-G): inactive

Compound: CC(C)/C=C1\NC(=O)C(C(C)C)n2c1nc1ccccc1c2=O (stereo unspecified)
- Potency [1]: inconclusive: 9.04 µM [inhibitor, partial curve, poor fit]
- Potency [3]: inactive
- max response (CRL-7250): inactive: 2.92%
- Potency (HEK293): inconclusive: 20.2 µM [inhibitor, single point]
